# Results: article PMC9911399, “Two distinct binding modes provide the RNA-binding protein RbFox with extraordinary sequence specificity”
# Residue numbers refer to the chain shown, from its start. Some of the results follow.
# T1: RBFOX1 RRM RbFoxmut (Fox-RRM*) (Homo sapiens, UniProt Q9NWB1 109-208, R118D;E147R;N151S;E152T)
# T1 sequence: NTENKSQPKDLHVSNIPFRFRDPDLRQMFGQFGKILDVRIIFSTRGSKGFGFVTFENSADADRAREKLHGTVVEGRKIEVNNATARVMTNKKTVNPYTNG
# B1: UGAAUGG (DNA:RNA)
# RNA: GGGAGACCGGAAUUCAGAUUGUCCUGAAUGGUUAAAUCCCGUCGUAGCCACCA
# DNA 1: CAATCTGAATTCCGGTCTCCC
# DNA 2: TGGTGGCTACGACGGGATT
# B2: GGUACAG (DNA:RNA)
# RNA: B1 RNA with U25G, A27U, U29C, G30A
# DNA 1: CAATCTGAATTCCGGTCTCCC
# DNA 2: TGGTGGCTACGACGGGATT
# B3: CUAAUAA (DNA:RNA)
# RNA: B1 RNA with U25C, G26U, G30A, G31A
# DNA 1: CAATCTGAATTCCGGTCTCCC
# DNA 2: TGGTGGCTACGACGGGATT
# B4: AGCCGCA (DNA:RNA)
# RNA: B1 RNA with U25A, A27C, A28C, U29G, G30C, G31A
# DNA 1: CAATCTGAATTCCGGTCTCCC
# DNA 2: TGGTGGCTACGACGGGATT
# B5: UUCCGCU (DNA:RNA)
# RNA: B1 RNA with G26U, A27C, A28C, U29G, G30C, G31U
# DNA 1: CAATCTGAATTCCGGTCTCCC
# DNA 2: TGGTGGCTACGACGGGATT
# B6: CCCGUAC (DNA:RNA)
# RNA: B1 RNA with U25C, G26C, A27C, A28G, G30A, G31C
# DNA 1: CAATCTGAATTCCGGTCTCCC
# DNA 2: TGGTGGCTACGACGGGATT
# B7: UGUUGCC (DNA:RNA)
# RNA: B1 RNA with A27U, A28U, U29G, G30C, G31C
# DNA 1: CAATCTGAATTCCGGTCTCCC
# DNA 2: TGGTGGCTACGACGGGATT
# B8: GUUCAGA (DNA:RNA)
# RNA: B1 RNA with U25G, G26U, A27U, A28C, U29A, G31A
# DNA 1: CAATCTGAATTCCGGTCTCCC
# DNA 2: TGGTGGCTACGACGGGATT
# B9: GACUGAG (DNA:RNA)
# RNA: B1 RNA with U25G, G26A, A27C, A28U, U29G, G30A
# DNA 1: CAATCTGAATTCCGGTCTCCC
# DNA 2: TGGTGGCTACGACGGGATT
# B10: UUGGGUA (DNA:RNA)
# RNA: B1 RNA with G26U, A27G, A28G, U29G, G30U, G31A
# DNA 1: CAATCTGAATTCCGGTCTCCC
# DNA 2: TGGTGGCTACGACGGGATT
# B11: UACAUAU (DNA:RNA)
# RNA: B1 RNA with G26A, A27C, G30A, G31U
# DNA 1: CAATCTGAATTCCGGTCTCCC
# DNA 2: TGGTGGCTACGACGGGATT
# B12: AGCAUCG (DNA:RNA)
# RNA: B1 RNA with U25A, A27C, G30C
# DNA 1: CAATCTGAATTCCGGTCTCCC
# DNA 2: TGGTGGCTACGACGGGATT
# B13: CAUUAGU (DNA:RNA)
# RNA: B1 RNA with U25C, G26A, A27U, A28U, U29A, G31U
# DNA 1: CAATCTGAATTCCGGTCTCCC
# DNA 2: TGGTGGCTACGACGGGATT
# B14: CUGAGUU (DNA:RNA)
# RNA: B1 RNA with U25C, G26U, A27G, U29G, G30U, G31U
# DNA 1: CAATCTGAATTCCGGTCTCCC
# DNA 2: TGGTGGCTACGACGGGATT
# B15: CAGUUUC (DNA:RNA)
# RNA: B1 RNA with U25C, G26A, A27G, A28U, G30U, G31C
# DNA 1: CAATCTGAATTCCGGTCTCCC
# DNA 2: TGGTGGCTACGACGGGATT
# B16: AUUGUCG (DNA:RNA)
# RNA: B1 RNA with U25A, G26U, A27U, A28G, G30C
# DNA 1: CAATCTGAATTCCGGTCTCCC
# DNA 2: TGGTGGCTACGACGGGATT
# B17: UUCGGGC (DNA:RNA)
# RNA: B1 RNA with G26U, A27C, A28G, U29G, G31C
# DNA 1: CAATCTGAATTCCGGTCTCCC
# DNA 2: TGGTGGCTACGACGGGATT
# B18: GCGUCCA (DNA:RNA)
# RNA: GGGAGACCGGAAUUCAGAUUGUCCGCGUCCAUUAAAUCCCGUCGUAGCCACCA
# DNA 1: CAATCTGAATTCCGGTCTCCC
# DNA 2: TGGTGGCTACGACGGGATT
# B19: UACAACC (DNA:RNA)
# RNA: B1 RNA with G26A, A27C, U29A, G30C, G31C
# DNA 1: CAATCTGAATTCCGGTCTCCC
# DNA 2: TGGTGGCTACGACGGGATT
# B20: GUGCUAA (DNA:RNA)
# RNA: B18 RNA with C26U, U28C, C29U, C30A
# DNA 1: CAATCTGAATTCCGGTCTCCC
# DNA 2: TGGTGGCTACGACGGGATT
# Target: T1, RBFOX1 RRM RbFoxmut (Fox-RRM*)
# Assay: EMSA; HiTS-Eq, 1 nM pool, 10 min; buffer printed only for the single-RNA assays: 10 mM Tris pH 7.5, 150 mM NaCl, 3.4 mM EDTA, 0.001% NP-40, 30 C
# Details: tags: His6 N-terminal (pET28a); label: 5' 32P
# Procedure, shortened: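 These values rest on relative association constants, computed from read-count changes of each RNA species versus the control reaction and normalised to the cognate motif. Reads came from free RNA recovered by 8% native PAGE after purified RbFox RRM (wild type or mutant) at increasing concentrations was equilibrated for 10 min in 50 µL with 1 nM of a 5′-radiolabelled pool with 7 randomized nucleotides and DNA-annealed flanks.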
row,Binder,binding signal
1,B1,0.339 KA relative to UGCAUGU
2,B2,0.0846 KA relative to UGCAUGU
3,B3,0.0927 KA relative to UGCAUGU
4,B4,0.121 KA relative to UGCAUGU
5,B5,0.0662 KA relative to UGCAUGU
6,B6,0.078 KA relative to UGCAUGU
7,B7,0.296 KA relative to UGCAUGU
8,B8,0.151 KA relative to UGCAUGU
9,B9,0.179 KA relative to UGCAUGU
10,B10,0.211 KA relative to UGCAUGU
11,B11,0.0634 KA relative to UGCAUGU
12,B12,0.437 KA relative to UGCAUGU
13,B13,0.137 KA relative to UGCAUGU
14,B14,0.0992 KA relative to UGCAUGU
15,B15,0.142 KA relative to UGCAUGU
16,B16,0.136 KA relative to UGCAUGU
17,B17,0.0523 KA relative to UGCAUGU
18,B18,0.0731 KA relative to UGCAUGU
19,B19,0.0738 KA relative to UGCAUGU
20,B20,0.0948 KA relative to UGCAUGU
